In all, about 71,000 compounds went through this assay and about 1,800 (2.5%) were called active. The shares of active, inactive and inconclusive entries below differ from those in the screen. Calls come from the whole dose curve; as a rule, active = well fitted activation curve with a large enough effect in the signal ratio, with a control signal flat (not every such curve was filed as active); inconclusive = small, poorly fitted or top-dose-only effect, or effect the other way, or a change in a side signal; inactive = flat fitted curve, though single readings scatter; the % refers to the signal ratio. Potencies beside an inconclusive call are fits to weak or partial responses and may not hold up.
Assay: Cell signaling CRE-BLA (Fsk stim); for activity change, negative = inhibition: % of control where 0% means no effect
Settings: CHO CRE-bla reporter (cAMP response element driving beta-lactamase), forskolin EC10, beta-lactamase ratio; activity change, negative = inhibition: at 38.2 µM (top of the series) unless noted
In short: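 CRE-bla CHO reporter cells treated with compound titration plus EC10 NKH 477 (water-soluble forskolin), incubated 3 h at 37 °C; CCF4 loading 2 h at room temperature, 460/530 nm emission ratio read, AC50 values derived for positive or negative modulators.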
Potency is the fitted concentration of half-maximal effect; tags give direction and shape of the fitted curve.

SMILES | activity change, negative = inhibition | Potency
COc1ccc(N2CCN(C(=O)C3CCCN(S(=O)(=O)c4cccc5cccnc45)C3)CC2)cc1 (stereo not given) | inconclusive: -28.1% | –
COc1cc(NC(=O)c2ccccc2Cl)c(OC)cc1NC(=O)CN1CCOCC1 | – | inconclusive: 1.58 µM [rising, partial curve]
O=C(CN1CCc2ccccc2C1)Nc1ccccc1N1CCCCCC1 | inconclusive: 20.3% | –
O=C(CN1C(=O)C2C3C=CC(C3)C2C1=O)N1CCc2ccccc2C1 (stereo not given) | inconclusive: -21.2% | –
CC1(C)Cc2c(c(-c3ccco3)nc3n[nH]c(N)c23)CO1 | – | active: 15.8 µM
Cc1ccccc1-n1c(SC/C(O)=C(\C#N)c2nc3ccccc3[nH]2)nnc1-c1ccncc1 | – | inconclusive: 20 µM [rising, single point]
COc1ccc(-n2nnnc2SCC#CCO)cc1 | inconclusive: 0.186% | –
CC1CN(S(=O)(=O)c2cccc(C(=O)OCc3cc(=O)oc4cc(O)ccc34)c2)CC(C)O1 (stereo not given) | inactive | –
CC(C)N(Cc1ccccc1)C(=O)c1cnc2n(c1=O)CCS2 | – | inconclusive: 10 µM [rising, single point]
Cc1ccc2cccnc2c1 | inactive | –
COc1cc(C2Nc3cc(Cl)c(S(N)(=O)=O)cc3S(=O)(=O)N2)cc(OC)c1OC (stereo not given) | inconclusive: 4.5% | –
CC(C)=C1C2C=CC1C(C(=O)Nc1cc(C)ccc1C)C2C(=O)O (stereo not given) | inconclusive: 0.65% | –
CC1CC(C)CN(C(=O)Cn2c(=O)n(CCCCC(=O)NCc3ccco3)c(=O)c3ccccc32)C1 (stereo not given) | inactive | –
CCOC(=O)c1c(N)sn(-c2ccccc2C)c1=S | – | inconclusive: 2.51 µM [rising, full curve, poor fit]
CCN(Cc1cc2cc(OC)ccc2[nH]c1=O)C(=O)c1ccncc1 | inconclusive: 15.3% | –
Cc1ccc(Cn2c(NCCc3ccccc3)nc3c2c(=O)n(C)c(=O)n3C)cc1 | inconclusive: 18.1% | –
CN(C)c1ccc(N=NS(=O)(=O)O)cc1 | inactive | –
Cc1cccc2cc(CN(CCCO)C(=O)Nc3cccc(Cl)c3)c(=O)[nH]c12 | inactive | –
CCC(c1nnnn1Cc1cccs1)N1CCN(C2CCCC2)CC1 (stereo not given) | inactive | –
OC(COc1ccc(Cl)cc1)CN1CCCCC1 (stereo not given) | – | inconclusive: 0.1 µM [rising, full curve]

SMILES | activity change, negative = inhibition | Potency
CCN(CC)C1CC(=O)N(c2cccc(C)c2)C1=O (stereo not given) | inactive | –
Cc1ccc(Cn2nnc3c(=O)[nH]c(C4CCN(S(=O)(=O)c5ccc(C)cc5)CC4)nc32)cc1 | – | inconclusive: 12.6 µM [rising, single point]
COc1ncc2nc(-c3cn(C)c4ccccc34)c(=O)n(CCc3ccccc3)c2n1 | – | inconclusive: 0.794 µM [rising, full curve]
CCOC(=O)CSc1n[nH]c(-c2ccco2)n1 | inactive | –
CCCCCSc1nc2c(c(=O)[nH]c(=O)n2C)n1C(C)C | – | active: 10 µM
COc1ccc(-c2nc3cnc(N4CCN(C)CC4)nc3n(Cc3cccc(OC)c3)c2=O)cc1 | – | inconclusive: 0.316 µM [rising, full curve]
COCCN1Cc2cccc(C(=O)Nc3cccc(OC)c3)c2C1=O | – | inconclusive: 12.6 µM [rising, single point]
CC(C)[C@H](Nc1ncnc2nc[nH]c12)C(=O)O | inactive: -8.42% [at 7.6 µM] | –
Brc1ccc2nc(CSc3ncn[nH]3)cn2c1 | inactive | –
COc1ccccc1C(=O)Nc1c2c(nn1-c1cccc(C)c1C)CS(=O)C2 (stereo not given) | – | inconclusive: 12.6 µM [rising, partial curve]
CCCCCCn1c(-c2ccco2)nc2oc3cc(OC)ccc3c(=O)c2c1=O | inconclusive: 27.2% | –
CCn1c(-c2c[nH]c3ccccc23)n[nH]c1=S | – | inconclusive: 10 µM [rising, partial curve]
N#C/C(=C(/O)COC(=O)CCc1ccc(S(=O)(=O)N2CCOCC2)cc1)c1nc2ccccc2[nH]1 | inactive | –
O=C(CCCn1c(=S)[nH]c2ccccc2c1=O)N1CCCCC1 | inconclusive: 2.46% | –
Cn1c(NCc2ccco2)nc2ccccc21 | inconclusive: -9.61% | –
Cc1ccc(S(=O)(=O)N2CCN(c3nc(C)nc4sc(C)c(C)c34)CC2)cc1 | inactive | –
COc1ccc(C)cc1NC(=O)Cn1cnc2sc(C)c(S(=O)(=O)N3CCOCC3)c2c1=O | inconclusive: 27.8% | –
COc1ccc(CCn2c(C)cc3c(c2=O)C(c2ccncc2)C(C#N)=C(N)O3)cc1OC (stereo not given) | inconclusive: 18.4% | –
O=C(c1cccc(C(=O)N2CCc3ccccc32)n1)N1CCc2ccccc21 | – | inconclusive: 12.6 µM [rising, partial curve]
COc1ccc2[nH]cc(CCNc3ccnc(-c4cccc(C#N)c4)n3)c2c1 | inconclusive: -13.2% | –

From PubChem BioAssay AID662 (National Center for Advancing Translational Sciences (NCATS), 2007)
